Assay results reported in US20240254195A1 (35PHARMA, published 2024).

T1: GDF-8 (UniProt O14793 267-375)
T1 sequence (looked up): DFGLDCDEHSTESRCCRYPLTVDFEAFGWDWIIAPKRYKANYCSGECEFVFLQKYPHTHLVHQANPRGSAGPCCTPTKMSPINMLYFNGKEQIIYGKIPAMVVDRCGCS

T2: activin B (UniProt P09529 293-407)
T2 sequence (looked up): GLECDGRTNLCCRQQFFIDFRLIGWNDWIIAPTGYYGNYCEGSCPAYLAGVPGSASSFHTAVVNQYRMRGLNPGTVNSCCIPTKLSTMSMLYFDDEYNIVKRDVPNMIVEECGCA

T3: GDF-11 (UniProt O95390 299-407)
T3 sequence (looked up): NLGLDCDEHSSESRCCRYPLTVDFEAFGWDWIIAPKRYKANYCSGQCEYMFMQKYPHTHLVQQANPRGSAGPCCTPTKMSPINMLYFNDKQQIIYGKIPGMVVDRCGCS

T4: recombinant human activin A (human, UniProt P08476 311-426)
T4 sequence (looked up): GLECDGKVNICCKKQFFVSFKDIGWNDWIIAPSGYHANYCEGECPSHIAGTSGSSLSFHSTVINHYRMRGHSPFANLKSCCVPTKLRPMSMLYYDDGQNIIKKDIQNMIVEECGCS

T5: BMP-10 (UniProt O95393 317-424)
T5 sequence (looked up): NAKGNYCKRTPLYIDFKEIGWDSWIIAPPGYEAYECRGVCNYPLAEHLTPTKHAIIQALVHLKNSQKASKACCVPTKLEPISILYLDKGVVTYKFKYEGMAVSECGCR

T6: BMP-9 (UniProt Q9UK05 320-429)
T6 sequence (looked up): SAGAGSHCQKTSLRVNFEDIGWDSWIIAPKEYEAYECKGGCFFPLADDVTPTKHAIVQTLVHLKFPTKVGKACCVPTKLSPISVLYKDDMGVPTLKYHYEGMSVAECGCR

B1: P1373 (Fc fusion)
chain: ETRECIYYNANWELERTNQSGLERCEGEQDKRWHCYASWRNSSGTIELVKKGCWLDDFNCYDRQECVATEENPQVYFCCCEGNFCNERFTHLPEAGGPEVTYEPPPTGGGGSGGGGSGGGGSGG[human IgG1 Fc and a few adjoining residues cut from this listing]
B2: P1374 (Fc fusion)
chain: ETRECIYYNANWELERTNQSGLERCEGEQDKRWHCYASWRNSSGTIELVKKGCWLDDFNCYDRQECVATEENPQVYFCCCEGNFCNERFTHLPEAGGPEVTYEPPPTGGGGSGGGGSGGGGSGGGG[human IgG1 Fc with changes cut from this listing]
B3: P1406 (Fc fusion)
chain: ETRECIYYNANWEEERTNQSGLERCEGEQDKRWHCYASWRNSSGTIELVKKGCWLDDFNCYDRQECVATEENPQVYFCCCEGNFCNERFTHLPEAGGPEVTYEPPPTGGGGSGGGGSGGGGSGG[human IgG1 Fc and a few adjoining residues cut from this listing]
B4: P1409 (Fc fusion)
chain: ETRECIYYNANWEQERTNQSGLERCEGEQDKRWHCYASWRNSSGTIELVKKGCWLDDFNCYDRQECVATEENPQVYFCCCEGNFCNERFTHLPEAGGPEVTYEPPPTGGGGSGGGGSGGGGSGG[human IgG1 Fc and a few adjoining residues cut from this listing]
B5: P1389 (Fc fusion)
chain: ETRECIYYNANWELERTNQSGLERCETEQDKRWHCYASWRNSSGTIELVKKGCWLDDFNCYDRQECVATEENPQVYFCCCEGNFCNERFTHLPEAGGPEVTYEPPPTGGGGSGGGGSGGGGSGG[human IgG1 Fc and a few adjoining residues cut from this listing]
B6: wild type human ActRIIB-ECD-Fc (P75) (Fc fusion)
chain: ETRECIYYNANWELERTNQSGLERCEGEQDKRLHCYASWRNSSGTIELVKKGCWLDDFNCYDRQECVATEENPQVYFCCCEGNFCNERFTHLPEAGGPEVTYEPPPTG[human IgG1 Fc and a few adjoining residues cut from this listing]
B7: P1371 (Fc fusion)
chain: ETRECIYYNANWELERTNQSGLERCEGEQDKRWHCYASWRNSSGTIELVKKGCWLDDFNCYDRQECVATEENPQVYFCCCEGNFCNERFTHLPEAGGPEVTYEPPPTGGGGSGGGGSGGGG[human IgG1 Fc with changes cut from this listing]
B8: P751 (Fc fusion)
chain: ETRECIYYNANWELERTNQSGLERCEGEQDKRYHCYASWRNSSGTIELVKKGCWLDDFNCYDRQECVATEENPQVYFCCCEGNFCNERFTHLPEAGGPEVTYEPPPTGGGGSGGGGSGG[human IgG1 Fc and a few adjoining residues cut from this listing]
B9: P1185 (Fc fusion)
chain: ETRECIYYNANWELERTNQSGLERCEEEQDKRYHCYASWRNSSGTIELVKKGCWLDDFNCYDRQECVATEENPQVYFCCCEGNFCNERFTHLPEAGGPEVTYEPPPTGGGGSGGGGSGG[human IgG1 Fc and a few adjoining residues cut from this listing]
B10: P1229 (Fc fusion)
chain: ETRECIYYNANWELERTNQSGLERCEGEQDKRWHCYASWRNSSGTIELVKKGCWLDDFNCYDRQECVATEENPQVYFCCCEGNFCNERFTHLPEAGGPEVTYEPPPTGGGGSGGGGSGG[human IgG1 Fc and a few adjoining residues cut from this listing]
B11: P1182 (Fc fusion)
chain: ETRECIYYNANWELERTNQSGLERCEDEQDKRYHCYASWRNSSGTIELVKKGCWLDDFNCYDRQECVATEENPQVYFCCCEGNFCNERFTHLPEAGGPEVTYEPPPTGGGGSGGGGSGG[human IgG1 Fc and a few adjoining residues cut from this listing]
B12: P750 (Fc fusion)
chain: ETRECIYYNANWELERTNQSGLERCEGEQDKRRHCYASWRNSSGTIELVKKGCWLDDFNCYDRQECVATEENPQVYFCCCEGNFCNERFTHLPEAGGPEVTYEPPPTGGGGSGGGGSGG[human IgG1 Fc and a few adjoining residues cut from this listing]

Columns and labels:
Assay in all cases: cell-based or functional assay
GDF-8 = target: T1, GDF-8
activin B = target: T2, activin B
GDF-11 = target: T3, GDF-11
[1] = target: T4, recombinant human activin A
BMP-10 = target: T5, BMP-10
BMP-9 [2] = target: T6, BMP-9
BMP-9 [3] = target: T6, BMP-9; remark: listed apart in the source

Binder	GDF-8 IC50 (GDF-8) [nM]	Activin B IC50 (activin B) [nM]	GDF-11 IC50 (GDF-11) [nM]	Activin A IC50 [1] [nM]	BMP-10 IC50 (BMP-10) [nM]	BMP-9 IC50 (BMP-9 [2]) [nM]	fold less potent than P75 (BMP-9 [3]) [fold]
B1	0.4	2.9	0.46	0.53	> 100	> 1000	> 100
B2	0.37	1.9	0.4	0.53	–	–	–
B3	0.33	> 20	0.37	1.7	> 100	> 1000	–
B4	0.48	1.9	0.39	0.55	> 100	> 1000	–
B5	0.4	1	0.39	0.52	> 100	> 100	–
B6	0.67	1.4	0.75	2.3	2	3	–
B7	0.23	2.7	0.6	0.56	–	–	–
B8	0.3	0.8	0.25	0.82	2.4	18	–
B9	0.33	5.2	0.44	1	2.3	791	–
B10	0.33	1.8	0.39	0.7	> 100	> 1000	> 100
B11	0.37	7.7	0.46	0.85	2.4	265	–
B12	0.58	1	0.51	0.76	4.7	21	–
